Assay results from the RNAGym collection of RNA variant scans (doi:10.1073/pnas.2313332121).
Variants at the floor of the assay are shown more often than the library holds them.

B1: TPR 5TU (parent)
chain: GGAUCUUCUCGAUCUAACAAAAAAGACAAAUCUGCCACAAAGCUUGAGAGCAUCUUCGGAUGCAGAGGCGGCAGCCUUCGGUGGCGCGAUAGCGCCAACGUUCUCAACUAUGACACGCAAAACGCGUGCUCCGUUGAAUGGAGUUUAUCAUG

Variants of: B1
Assay: polymerase ribozyme fitness, log enrichment relative to wild type (log ratio); higher = more active; in vitro selection for triplet polymerase activity
Procedure, shortened: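 Frozen incubation at −7 °C formed the core of a single, triplicate in vitro selection round applied to PCR-built, transcribed mutant libraries of each subunit of a heterodimeric triplet polymerase ribozyme. Extended constructs were gel-excised, captured with streptavidin beads and amplified by RT-PCR, and input and output libraries were Illumina-sequenced with a filter of ≥10 input reads and ≥1 read per output. Fitness is the logarithm of genotype enrichment relative to wild-type enrichment, with inverse-variance-weighted replicate averaging, and the logarithm is base 2.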

Row | Variant | polymerase ribozyme fitness (log ratio)
1 | C35G A40C U55G C85U G92A U127G | ≤ -4.2
2 | C35U C85G U139A | ≤ -4.2
3 | C35U A39C C85A C116A | ≤ -4.2
4 | C36A A49C G71U G92A A107G U145C | ≤ -4.2
5 | C36A G58A C93G A107C C118A | ≤ -4.2
6 | C35U G58C U77A A120U A122G | ≤ -4.2
7 | C35U A49G G50A U77G C96U G143C A150G U151A | ≤ -4.2
8 | C36G A41U A66G A106G U144C U148C | ≤ -4.2
9 | C35G U55A G58A G86U A147U | -4.06
10 | C36A C57U C95G G152A | ≤ -4.2
11 | C36G G94C C96U A150U | ≤ -4.2
12 | C36U A37G U53A C54U C87G | ≤ -4.2
13 | C35U U135A | -0.972
14 | C36G G65C A98G G128A | ≤ -4.2
15 | C36U C54A C95G C108U U109C C116U | ≤ -4.2
16 | C35G U53C C87G G136U A137G | ≤ -4.2
17 | C35G U55A C85U | ≤ -4.2
18 | C36G C51U U61A G81U G86A C131G | ≤ -4.2
19 | C35G U61A C87G A97G A98U | ≤ -4.2
20 | C35A U44A U82A C87U A89C A120U | ≤ -4.2
21 | C36A A66C | ≤ -4.2

Row | Variant | polymerase ribozyme fitness (log ratio)
22 | C36G G46C U102G C132A A142C U145A | ≤ -4.2
23 | C36G A98U U109G C132A | ≤ -4.2
24 | C35U A64C G86U G152A | ≤ -4.2
25 | C35G G74A U90A C95U | ≤ -4.2
26 | C35U A52U C95G A106U A107G C118G | ≤ -4.2
27 | C35G U78A U90A C114A C116G C125G | ≤ -4.2
28 | C36A C76U C85U C96G G128A G141A | ≤ -4.2
29 | C35U C76A C95U U148A | ≤ -4.2
30 | C35U G136A | 0.0897
31 | C36G U45A G50C A52C C93G C118U G133C | ≤ -4.2
32 | C36U A39C C69G G84A C105G C108A | ≤ -4.2
33 | C35U G42A G65C U77G C87A U101G G143A U151A | ≤ -4.2
34 | C35U A49G C103U A137U | ≤ -4.2
35 | C36A G70A A73G G86C A106U C108U | ≤ -4.2
36 | C35A U90C C96U A110G A121G | ≤ -4.2
37 | C35U A91G C95A | ≤ -4.2
38 | C36G U144C | ≤ -4.2
39 | C35U C93G A98G C105U G141C | ≤ -4.2
40 | C36A C95U C96A A142G G152U | ≤ -4.2
41 | C35G G71A G94C | ≤ -4.2
42 | C35G U139C | ≤ -4.2

Row | Variant | polymerase ribozyme fitness (log ratio)
43 | C36A A66U C93G | ≤ -4.2
44 | C35U G92U A98G C105G G124U A150G | ≤ -4.2
45 | C35U G48A C87A U101G | ≤ -4.2
46 | C36G G81C C87A A107G C108U A110C | ≤ -4.2
47 | C35U G42U C93G C95A A97U G141A | ≤ -4.2
48 | C35U G71U | -3.53
49 | C35U C75U G83A G84A C95U C96U | -1.5
50 | C35U A98G C99A U101C G141A | ≤ -4.2
51 | C35U A97G U134G U144G | -2.34
52 | C35U A52C U53G C54U U82G C132U U144A | ≤ -4.2
53 | C36U A37U G83U U135A | ≤ -4.2
54 | C35U C51G G71U C131U | ≤ -4.2
55 | C35U A52G C76A A89C U145A | -3.45
56 | C36G C87U C149A | ≤ -4.2
57 | C36A C105A | ≤ -4.2
58 | C36A C87U G88C G124U | ≤ -4.2
59 | C35G C85A C105G A113U | ≤ -4.2
60 | C35G A37C A52G G86U A97G | -4.2
61 | C35U G58A A60C C93G C96U C105U C116U | ≤ -4.2
62 | C35U C57G C87U C99G G136A U151G | ≤ -4.2
63 | C35U C38G G86A G126A G136U | ≤ -4.2

Row | Variant | polymerase ribozyme fitness (log ratio)
64 | C35G U55C C96G | ≤ -4.2
65 | C35U C57G C85A G124A A138C U139A A142C U144G | ≤ -4.2
66 | C35U C85U A97U U111C U144C | ≤ -4.2
67 | C36A U55A G80U A147G A150C U151A | ≤ -4.2
68 | C35U G71U A98U C114G | ≤ -4.2
69 | C35G C63A C93U | -4.16
70 | C36A G84A C96A U127C U130C | ≤ -4.2
71 | C35U A60C A150C | ≤ -4.2
72 | C35U G42C C85U U127G | ≤ -4.2
73 | C35U A49C G59A C96A U148G A150C | ≤ -4.2
74 | C36A G59C A91C U151G | ≤ -4.2
75 | C35U C54A G83C C149A | ≤ -4.2
76 | C35U C51G C54U C85G C108U C125A | ≤ -4.2
77 | C35G C87U | -4.18
78 | C36A A47C G59U | ≤ -4.2
79 | C36A C79A C93A A115G A121U | ≤ -4.2
80 | C35U A41G C96A U144A | -0.485
81 | C36A A47C G67U G92C A97C A119U C123G U127A | ≤ -4.2
82 | C36A C87G A91C G92C A97U C125G | ≤ -4.2
83 | C35G C57A A122G U148A G152U | ≤ -4.2
